Data reported in patent US10336768B2, “Pyrimidine compounds and methods using the same” (Yuma Therapeutics, Inc., priority 2014, dated 2019).

System: phosphorylated tau protein (p-Tau)
Experiment: Tau phosphorylation assay in SHSY5Y-hTau441V337M/R406W cell line
Experimental: Cells were treated with compounds of the invention for 24 h and then lysed in a buffer containing NP-40, orthovanadate, and protease inhibitors. Western blots were performed with antibodies specific to Hsp70, Hsp90, or actin (as control). Tau phosphorylation was assayed using, e.g., a method of Liu et al., Biochemistry, 49:4921-4929, 2010, with SHSY5Y-hTau441V337M/R406W cell line (Loeffler et al., J. Mol. Neurosci., 47:192-203, 2012). […] The functional assay described herein provides an in vitro model of tauopathy and can be used to evaluate the effect of Hsp90 inhibitors on phosphorylated tau protein (p-Tau).

Compound: Nc1nc(-c2c(Cl)cc(Cl)c3c2CCO3)c2[nH]ccc2n1 [compound 20, 4-(5,7-Dichloro-2,3-dihydrobenzofuran-4-yl)-5H-pyrrolo[3,2-d]pyrimidin-2-amine]
- levels of pTau396 (at 0.05, 0.1, and 0.5 μM, FIG. 6C): significant decreases in the levels of pTau396
- levels of pTau231 (at 0.1 and 0.5 μM, FIG. 6B): significant decreases in the levels of pTau231
